According to patent US20230136723A1 (ALPINE IMMUNE SCIENCES, published 2023):

Target: T1, human PD-L1 (human, UniProt Q9NZQ7)
T1 construct: full-length surface expression construct on transfected Expi293F cells; also called CD274; B7-H1
Test: flow cytometry on transfected cells

T1 sequence (Q9NZQ7 19-290): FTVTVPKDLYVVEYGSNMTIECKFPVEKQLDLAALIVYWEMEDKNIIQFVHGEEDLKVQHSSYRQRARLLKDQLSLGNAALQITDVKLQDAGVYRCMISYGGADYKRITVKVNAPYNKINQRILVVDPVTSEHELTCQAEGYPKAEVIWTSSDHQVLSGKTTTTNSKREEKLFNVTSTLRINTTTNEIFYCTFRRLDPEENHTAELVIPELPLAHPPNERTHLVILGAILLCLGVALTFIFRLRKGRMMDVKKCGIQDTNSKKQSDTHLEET

Row | MFI [MFI] | Binder
1 | 6300 | Domain 1: CD80 WT / Domain 2: CD80 WT / Fc (Fc fusion) VIHVTKEVKEVATLSCGHNVSVEELAQTRIYWQKEKKMVLTMMSGDMNIWPEYKNRTIFDITNNLSIVILALRPSDEGTYECVVLKYEKDAFKREHLAEVTLSVKADFPTPSISDFEIPGGGGSGGGGSGGGGSVIHVTKEVKEVATLSCGHNVSVEELAQTRIYWQKEKKMVLTMMSGDMNIWPEYKNRTIFDITNNLSIVILALRPSDEGTYECVVLKYEKDAFKREHLAEVTLSVKADFPTPSISDFEIPGGGGSGGGGSAAA[… human IgG1 Fc with C220S R292C N297G V302C (EU numbers) …]
2 | 2080 | Domain 1: CD80 WT / Domain 2: CD86 WT / Fc (Fc fusion) VIHVTKEVKEVATLSCGHNVSVEELAQTRIYWQKEKKMVLTMMSGDMNIWPEYKNRTIFDITNNLSIVILALRPSDEGTYECVVLKYEKDAFKREHLAEVTLSVKADFPTPSISDFEIPGGGGSGGGGSGGGGSAPLKIQAYFNETADLPCQFANSQNQSLSELVVFWQDQENLVLNEVYLGKEKFDSVHSKYMGRTSFDSDSWTLRLHNLQIKDKGLYQCIIHHKKPTGMIRIHQMNSELSVLANFSQPEIVPISNITEGGGGSGGGGSAAA[… human IgG1 Fc with C220S R292C N297G V302C (EU numbers) …]
3 | 2970 | Domain 1: ICOSL WT / Domain 2: CD80 WT / Fc (Fc fusion) DTQEKEVRAMVGSDVELSCACPEGSRFDLNDVYVYWQTSESKTVVTYHIPQNSSLENVDSRYRNRALMSPAGMLRGDFSLRLFNVTPQDEQKFHCLVLSQSLGFQEVLSVEVTLHVAANFSVGGGGSGGGGSGGGGSVIHVTKEVKEVATLSCGHNVSVEELAQTRIYWQKEKKMVLTMMSGDMNIWPEYKNRTIFDITNNLSIVILALRPSDEGTYECVVLKYEKDAFKREHLAEVTLSVKADFPTPSISDFEIPGGGGSGGGGSAAA[… human IgG1 Fc with C220S R292C N297G V302C (EU numbers) …]
